Results: the supplement of paper PMC8728848
This is one part of the list.

Tests used:
Assay in all cases: glycan array binding signal (z-score within array); higher = stronger binding
Conditions in all cases: glycan notation: IUPAC condensed, linker removed
GlcNAc(b1-3)GalNAc = molecular target: GlcNAc(b1-3)GalNAc
Outline: (§1)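 Negative Z-scores can be read as non-binding. The Z-score is calculated within each array and then averaged across arrays of one protein sequence at different concentrations or buffers and across linkers. Arrays, 3228 in all, were curated from the Consortium for Functional Glycomics database and kept only where the protein sequence was available.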

GlcNAc(b1-3)Man = molecular target: GlcNAc(b1-3)Man
Outline: as §1

[1] = molecular target: GlcNAc(b1-3)[GlcNAc(b1-4)][GlcNAc(b1-6)]GlcNAc
Outline: as §1

[2] = molecular target: GlcNAc(b1-3)[GlcNAc(b1-6)]Gal(b1-4)GlcNAc
Outline: as §1

[3] = molecular target: GlcNAc(b1-3)[GlcNAc(b1-6)]GalNAc
Outline: as §1

[4] = molecular target: GlcNAc(b1-4)Gal(b1-4)GlcNAc
Outline: as §1

GlcNAc(b1-4)GlcNAc = molecular target: GlcNAc(b1-4)GlcNAc
Outline: as §1

[5] = molecular target: GlcNAc(b1-4)GlcNAc(b1-4)GlcNAc
Outline: as §1

[6] = molecular target: GlcNAc(b1-4)GlcNAc(b1-4)GlcNAc(b1-4)GlcNAc(b1-4)GlcNAc
Outline: as §1

[7] = molecular target: GlcNAc(b1-4)GlcNAc(b1-4)GlcNAc(b1-4)GlcNAc(b1-4)GlcNAc(b1-4)GlcNAc
Outline: as §1

[8] = molecular target: GlcNAc(b1-4)[GlcNAc(b1-6)]GalNAc
Outline: as §1

[9] = molecular target: GlcNAc(b1-6)Gal(b1-4)GlcNAc
Outline: as §1

GlcNAc(b1-6)GalNAc = molecular target: GlcNAc(b1-6)GalNAc
Outline: as §1

[10] = molecular target: GlcNAc6S(b1-3)Gal(b1-4)GlcNAc
Outline: as §1

Kdn(a2-3)Gal(b1-3)GalNAc = molecular target: Kdn(a2-3)Gal(b1-3)GalNAc
Outline: as §1

Kdn(a2-3)Gal(b1-3)GlcNAc = molecular target: Kdn(a2-3)Gal(b1-3)GlcNAc
Outline: as §1

Kdn(a2-3)Gal(b1-4)Glc = molecular target: Kdn(a2-3)Gal(b1-4)Glc
Outline: as §1

Kdn(a2-3)Gal(b1-4)GlcNAc = molecular target: Kdn(a2-3)Gal(b1-4)GlcNAc
Outline: as §1

[11] = molecular target: Kdn(a2-3)Gal(b1-4)[Fuc(a1-3)]GlcNAc
Outline: as §1

Kdn(a2-6)Gal(b1-4)GlcNAc = molecular target: Kdn(a2-6)Gal(b1-4)GlcNAc
Outline: as §1

[12] = molecular target: Man(a1-2)Man(a1-2)Man(a1-3)Man
Outline: as §1

[13] = molecular target: Man(a1-2)Man(a1-2)Man(a1-6)[Man(a1-3)]Man
Outline: as §1

Man(a1-2)Man(a1-3)Man = molecular target: Man(a1-2)Man(a1-3)Man
Outline: as §1

[14] = molecular target: Man(a1-2)Man(a1-3)[Man(a1-2)Man(a1-6)]Man
Outline: as §1

[15] = molecular target: Man(a1-2)Man(a1-3)[Man(a1-2)Man(a1-6)]Man(a1-6)[Man(a1-2)Man(a1-2)Man(a1-3)]Man
Outline: as §1

[16] = molecular target: Man(a1-2)Man(a1-3)[Man(a1-2)Man(a1-6)]Man(a1-6)[Man(a1-2)Man(a1-2)Man(a1-3)]Man(b1-4)GlcNAc(b1-4)GlcNAc
Outline: as §1

[17] = molecular target: Man(a1-2)Man(a1-3)[Man(a1-6)]Man(a1-6)[Man(a1-2)Man(a1-3)]Man(b1-4)GlcNAc(b1-4)GlcNAc
Outline: as §1

[18] = molecular target: Man(a1-2)Man(a1-6)[Man(a1-3)]Man(a1-6)[Man(a1-2)Man(a1-2)Man(a1-3)]Man
Outline: as §1

[19] = molecular target: Man(a1-2)Man(a1-6)[Man(a1-3)]Man(a1-6)[Man(a1-2)Man(a1-2)Man(a1-3)]Man(b1-4)GlcNAc(b1-4)GlcNAc
Outline: as §1

Man(a1-3)[Man(a1-6)]Man = molecular target: Man(a1-3)[Man(a1-6)]Man
Outline: as §1

[20] = molecular target: Man(a1-3)[Man(a1-6)]Man(a1-6)[Man(a1-2)Man(a1-3)]Man(b1-4)GlcNAc(b1-4)GlcNAc
Outline: as §1

[21] = molecular target: Man(a1-3)[Man(a1-6)]Man(a1-6)[Man(a1-3)]Man
Outline: as §1

[22] = molecular target: Man(a1-3)[Man(a1-6)]Man(a1-6)[Man(a1-3)]Man(b1-4)GlcNAc(b1-4)GlcNAc
Outline: as §1

[23] = molecular target: Man(a1-3)[Man(a1-6)]Man(b1-4)GlcNAc(b1-4)GlcNAc
Outline: as §1

[24] = molecular target: Man(a1-3)[Man(a1-6)]Man(b1-4)GlcNAc(b1-4)[Fuc(a1-6)]GlcNAc
Outline: as §1

Man(a1-6)Man = molecular target: Man(a1-6)Man
Outline: as §1

Man(b1-4)GlcNAc = molecular target: Man(b1-4)GlcNAc
Outline: as §1

MurNAc(b1-4)GlcNAc = molecular target: MurNAc(b1-4)GlcNAc
Outline: as §1

B1: SP16664B-bot-474-25-474 (Bacteroides ovatus) (protein)
chain: CEEDIEIGNKIDESSYLASTQLSGLLLDENTNKNSSVIELRNNEYSTNVVFRLSKLPQKGVDVQIAVEESYAAIYNTIHETDFEVFPAANVKIANNGTFVLAPDDKVTPSVKVTLTAFDGMEEDKTYIVPLTVTSSTEGVTFTETSKHMVLLVQDYRNKPNTNKGEDAVQTVLYFEVNDTNPLNALEFLTESGKYFFDHIVLFAANINWDPEKQRVYLANNENVQFLLDNNDKYLQPLRKAGMKIIISILGNHDEAGVAQLSDMGAREFARELAAYCRAYNLDGVAFDDEYSNSPDLSNPWLASPSAYAGSRLMYECKAVMPEKIVSLYNLGNMYSSSLQVIDGIEPGQYCDYAVADYGGAAGPGTGMTLKQCAGMSIELRRGSGNSSESTARSRKEAGYGYYMFFALDPSLYGSQVYRCQSVCKGLYDETLVYPSYYYKKNSTEREAIN
glycan array binding signal (z-score) (GlcNAc(b1-3)GalNAc): -0.346
glycan array binding signal (z-score) (GlcNAc(b1-3)Man): 0.501
glycan array binding signal (z-score) [1]: 0.579
glycan array binding signal (z-score) [2]: -0.365
glycan array binding signal (z-score) [3]: -0.205
glycan array binding signal (z-score) [4]: -0.301
glycan array binding signal (z-score) (GlcNAc(b1-4)GlcNAc): -0.02
glycan array binding signal (z-score) [5]: -0.542
glycan array binding signal (z-score) [6]: 1
glycan array binding signal (z-score) [7]: -0.271
glycan array binding signal (z-score) [8]: -0.298
glycan array binding signal (z-score) [9]: -0.268
glycan array binding signal (z-score) (GlcNAc(b1-6)GalNAc): -0.234
glycan array binding signal (z-score) [10]: 0.26
glycan array binding signal (z-score) (Kdn(a2-3)Gal(b1-3)GalNAc): -0.281
glycan array binding signal (z-score) (Kdn(a2-3)Gal(b1-3)GlcNAc): -0.35
glycan array binding signal (z-score) (Kdn(a2-3)Gal(b1-4)Glc): -0.182
glycan array binding signal (z-score) (Kdn(a2-3)Gal(b1-4)GlcNAc): -0.391
glycan array binding signal (z-score) [11]: -0.002
glycan array binding signal (z-score) (Kdn(a2-6)Gal(b1-4)GlcNAc): 0.531
glycan array binding signal (z-score) [12]: -0.346
glycan array binding signal (z-score) [13]: -0.417
glycan array binding signal (z-score) (Man(a1-2)Man(a1-3)Man): -0.437
glycan array binding signal (z-score) [14]: -0.568
glycan array binding signal (z-score) [15]: -0.565
glycan array binding signal (z-score) [16]: -0.1
glycan array binding signal (z-score) [17]: -0.368
glycan array binding signal (z-score) [18]: -0.036
glycan array binding signal (z-score) [19]: -0.063
glycan array binding signal (z-score) (Man(a1-3)[Man(a1-6)]Man): 0.334
glycan array binding signal (z-score) [20]: -0.142
glycan array binding signal (z-score) [21]: -0.159
glycan array binding signal (z-score) [22]: -0.363
glycan array binding signal (z-score) [23]: -0.436
glycan array binding signal (z-score) [24]: -0.263
glycan array binding signal (z-score) (Man(a1-6)Man): 0.198
glycan array binding signal (z-score) (Man(b1-4)GlcNAc): -0.469
glycan array binding signal (z-score) (MurNAc(b1-4)GlcNAc): -0.181
